The list shows a part of the results.
molecular target: T1, OsWOX13 (Oryza sativa, UniProt Q5QMM3 1-267); assay: protein-binding microarray (RPBM); PBS, 2% BSA, 51.3 ng/ul salmon testes DNA, 50 uM zinc acetate, 200 nM TF, 25 C, 1 h; high values mean tight binding; settings: protein: recombinant; tags: N-terminal polyhistidine and DsRed monomer fusion (pET32a); label: CyDye5-dUTP incorporated in the synthesized complementary strand; 3' TTTTT single-stranded linker to array surface; dsDNA, one strand shown
T1 sequence: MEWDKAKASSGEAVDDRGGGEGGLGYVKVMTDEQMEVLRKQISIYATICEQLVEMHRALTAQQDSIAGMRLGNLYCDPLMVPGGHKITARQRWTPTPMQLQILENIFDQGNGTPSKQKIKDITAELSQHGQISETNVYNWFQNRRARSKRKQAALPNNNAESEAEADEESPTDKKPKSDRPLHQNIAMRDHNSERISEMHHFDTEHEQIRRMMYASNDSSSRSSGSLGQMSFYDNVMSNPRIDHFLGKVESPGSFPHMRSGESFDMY
Method in brief: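 Transcription factors were made in E. coli BL21-CodonPlus as N-terminal fusions to a polyhistidine tag and DsRed, then purified on Ni–NTA. After primer extension with Cy5-dUTP and blocking with 2% BSA, a custom Agilent array was exposed for 1 h at 25 °C to 200 nM protein in PBS, 2% BSA, salmon testes DNA and 50 µM zinc acetate. Washed arrays were scanned on an Axon 4000B, and the binding signal is per-feature fluorescence intensity in arbitrary units.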

In order of falling binding signal:
1. ACAAAGTAATTGATTTCTTGTGTGAGGCCTTGTTTAGATCCGGAGTCACCTAGTGCAG  53400 fluorescence intensity (a.u.)
2. GTGATTGAGTTTGAATGTAAGCAACTTCTAACGATAGTGCCGGAGTCACCTAGTGCAG  42200 fluorescence intensity (a.u.)
3. TTATTCTCTTGTGTGATTTGTGATTGATGATCTGTCAACACGGAGTCACCTAGTGCAG  37000 fluorescence intensity (a.u.)
4. AATCTAATTTAATTAGGATATAGATCTAGCAATGCTGTTTCGGAGTCACCTAGTGCAG  36400 fluorescence intensity (a.u.)
5. TGCTAGATTTAATTAAACTAATTTGGTGTTTAAAATGTTACGGAGTCACCTAGTGCAG  36100 fluorescence intensity (a.u.)
6. CAGATCAATTTATCGAGATTGATCAAAAGCAAGATGATGCCGGAGTCACCTAGTGCAG  35000 fluorescence intensity (a.u.)
7. CTTAACTAATCATATGCTGCTAATGACTTATCCTGCGGTGCGGAGTCACCTAGTGCAG  33700 fluorescence intensity (a.u.)
8. TTTGCAATAATTAATACTAATTAATCATATGCGGTTTCTTCGGAGTCACCTAGTGCAG  31100 fluorescence intensity (a.u.)
9. TAATTTAAATTTATTTAAACATGACTACTCGATTGCCATGCGGAGTCACCTAGTGCAG  30400 fluorescence intensity (a.u.)
10. ACTTAAATTGAAATTGGGTTTGTTGGATCTTCAGCATAGCCGGAGTCACCTAGTGCAG  30000 fluorescence intensity (a.u.)
11. AATAATACGTGATTAATTAAATTTTAATTATTATAAACTTCGGAGTCACCTAGTGCAG  25600 fluorescence intensity (a.u.)
12. GGATGATAGTTGATGGATGAATATGTGATGGAGACATGGACGGAGTCACCTAGTGCAG  24900 fluorescence intensity (a.u.)
13. ATAAATTGGACATCCTGGACATGCTCTTTCTTCAGACATCCGGAGTCACCTAGTGCAG  24100 fluorescence intensity (a.u.)
14. TGAAAATTGATGATGCGGATGCGAGGTGCACGAGGAGTGACGGAGTCACCTAGTGCAG  19400 fluorescence intensity (a.u.)
15. TTCTGCAAATCCAATCAATCGCGGGTTAATATCCCAGCACCGGAGTCACCTAGTGCAG  17800 fluorescence intensity (a.u.)
16. ATTTGGTGTTTGTGATTGAGTTCGTTTATTTCGAGAAATGCGGAGTCACCTAGTGCAG  16900 fluorescence intensity (a.u.)
17. TTTAAACTGGCTGTGACTACATGAAATCATATGAAATCAGCGGAGTCACCTAGTGCAG  16600 fluorescence intensity (a.u.)
18. GAGGGAGTACTAATTAATTAAACGCGGTTGCTTTCTCGCCCGGAGTCACCTAGTGCAG  15400 fluorescence intensity (a.u.)
19. TACTTCAATGATTTAATTAAGGATAGCTTGCAGCTTAACTCGGAGTCACCTAGTGCAG  14800 fluorescence intensity (a.u.)
20. ATTGGTAGTCATAATTAATTAGACCACGATGCCCTCTAAACGGAGTCACCTAGTGCAG  14000 fluorescence intensity (a.u.)
21. ACAGTTACATGATTAAATGGTCTTCTTGAATTTTGCGGTGCGGAGTCACCTAGTGCAG  13700 fluorescence intensity (a.u.)
22. ATTATACATTTGATCAATTATTATACACTGGTTCTCAAAACGGAGTCACCTAGTGCAG  13500 fluorescence intensity (a.u.)
23. AAACCACCTAACAATTGATAGATGCTTAATTTAGCCAAACCGGAGTCACCTAGTGCAG  12900 fluorescence intensity (a.u.)
24. TAAAATTAAATTTACAAGGGTTAATTCGCGAGTAATAACGCGGAGTCACCTAGTGCAG  12300 fluorescence intensity (a.u.)
25. TATGTAGATATAGATTGGCTGCTCAAATCTTTTCGCGATTCGGAGTCACCTAGTGCAG  11100 fluorescence intensity (a.u.)
26. AGCTATCCAGAAATTAATTACTAGTCACAATTGCCACTTCCGGAGTCACCTAGTGCAG  10200 fluorescence intensity (a.u.)
27. GCCAATCACTGTACTTCTATTACAATGCACATGCATGCGCCGGAGTCACCTAGTGCAG  10000 fluorescence intensity (a.u.)
28. CTTCCAATCGTCAATGTCTGATTTTGTCGTTGGCGTGTAACGGAGTCACCTAGTGCAG  9800 fluorescence intensity (a.u.)
29. TGCTAAATTGCCAGTAAAGTTTATTTTGGCTACAATCTGACGGAGTCACCTAGTGCAG  8930 fluorescence intensity (a.u.)
30. GTGAAGAGCAAATCAATTGATATATGAATCAGCAGGAGGCCGGAGTCACCTAGTGCAG  8780 fluorescence intensity (a.u.)
31. TTGATGGAGTAAATTTCCCCTACTCTACGTGCGTACAAGTCGGAGTCACCTAGTGCAG  8740 fluorescence intensity (a.u.)
32. AGGGAATTTTATGATTTGCATTGGTGCTGAGGTCAAACCCCGGAGTCACCTAGTGCAG  7180 fluorescence intensity (a.u.)
33. TATAATTTTAAGCTACACAGACAAATCTAAATACGGTAAACGGAGTCACCTAGTGCAG  6900 fluorescence intensity (a.u.)
34. TGATTGTTTCATTAATTAGCCTGTTTTGTCTGTAAATACTCGGAGTCACCTAGTGCAG  6690 fluorescence intensity (a.u.)
35. GCTGTTAATTAAGCAGCAGAAGAAGTAGCAGCTTAGCTGCCGGAGTCACCTAGTGCAG  6420 fluorescence intensity (a.u.)
36. CCGATTTCTATATAATTTCGATTAACGCCACGCCATGCCACGGAGTCACCTAGTGCAG  6100 fluorescence intensity (a.u.)
37. TTTATACGAAAATCAATAATTATAGCAGATATCCACAAGGCGGAGTCACCTAGTGCAG  5700 fluorescence intensity (a.u.)
38. CCCTAAATTCATGAGATTGCAGCTGTCTGTAAGTTCTAATCGGAGTCACCTAGTGCAG  5540 fluorescence intensity (a.u.)
39. AGCCAAATTACCATGTCTTTTCAAGCATGTCTATGGGAACCGGAGTCACCTAGTGCAG  5530 fluorescence intensity (a.u.)
40. ACTAGGATGATGTGAATAAGTAATTGAGTAGGCTAAAGTTCGGAGTCACCTAGTGCAG  5220 fluorescence intensity (a.u.)
41. ATAATCAAAGAATTAATCAGGATAGGATGGCACGAATCTTCGGAGTCACCTAGTGCAG  4980 fluorescence intensity (a.u.)
42. CCAAAATTTACCCAATATAACGGCCCATTTACGACATTCCCGGAGTCACCTAGTGCAG  4610 fluorescence intensity (a.u.)
43. ACGTAATGACATGTAAAGCGTTATGTAGATGCCACGTGGACGGAGTCACCTAGTGCAG  4580 fluorescence intensity (a.u.)
44. CTTTGAAATTGCGTAATATCAAAATTGCATCTATTTTATCCGGAGTCACCTAGTGCAG  4430 fluorescence intensity (a.u.)
45. ATTGATCGATTGTATGTAGGTTCATATTGCTTAGATGGTGCGGAGTCACCTAGTGCAG  4300 fluorescence intensity (a.u.)
46. ATTCAATAAATCTATCTGTATGTCTATCTATCTTCTACTCCGGAGTCACCTAGTGCAG  4010 fluorescence intensity (a.u.)
47. AGTGACCTCAATTGATCATTCCCTCATCCTTTAGTCAAGCCGGAGTCACCTAGTGCAG  3990 fluorescence intensity (a.u.)
48. AATATATGATTTTGTTTGGGTGCTAGCCGCGCAAATGCGCCGGAGTCACCTAGTGCAG  3950 fluorescence intensity (a.u.)
49. ACTTCTTCTACGTGATTTCCTGATTCGCCTCATCCGCTTCCGGAGTCACCTAGTGCAG  3770 fluorescence intensity (a.u.)
50. AAATAAACAGTCCGTAAACCGTTTGGACCGTCCGATGAGCCGGAGTCACCTAGTGCAG  3680 fluorescence intensity (a.u.)
51. GAAAACGCCAAAATACAATAATTAGATTTTCCACAGACACCGGAGTCACCTAGTGCAG  3580 fluorescence intensity (a.u.)
52. CTTCACCCACCAAGATTTAAATTATGGTGTAACCACAAATCGGAGTCACCTAGTGCAG  3500 fluorescence intensity (a.u.)
53. CGAATTAAACACAGCCATAATGAGTTTAAATGTTAGCACTCGGAGTCACCTAGTGCAG  3380 fluorescence intensity (a.u.)
54. TTTAAATTTAACTAAGTTTATAAATAAATATAATAATATTCGGAGTCACCTAGTGCAG  3320 fluorescence intensity (a.u.)
